Data taken from PMC12820563, “FoxP3 forms a head-to-head dimer in vivo and stabilizes its multimerization on adjacent microsatellites”.
This is one part of the list.

target: T1, MBP-FoxP1dN (Mus musculus, UniProt P58462 326-579); assay: PD-seq (MBP pull-down with sequencing); 20 mM Tris-HCl pH 7.5, 100 mM NaCl, 1.5 mM MgCl2, 0.4 uM protein, 0.1 uM dsDNA library, 30 min, room temperature, amylose pull-down; high values mean tight binding; settings: protein: recombinant; tags: His6-MBP; chain copies: 2; dsDNA, one strand shown
T1 sequence: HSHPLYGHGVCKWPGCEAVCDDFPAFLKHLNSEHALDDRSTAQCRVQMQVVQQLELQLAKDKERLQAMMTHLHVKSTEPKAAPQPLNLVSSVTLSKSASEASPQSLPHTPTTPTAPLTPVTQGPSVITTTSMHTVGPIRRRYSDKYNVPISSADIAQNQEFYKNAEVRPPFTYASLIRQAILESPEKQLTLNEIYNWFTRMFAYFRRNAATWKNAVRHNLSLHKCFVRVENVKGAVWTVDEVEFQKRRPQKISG
Summary of the method: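 In Tris pH 7.5 buffer with NaCl and MgCl2, 0.4 µM His6-MBP-tagged mouse FoxP3 or FoxP1 fragment lacking the N-terminus, from E. coli, met 0.1 µM Klenow-filled double-stranded degenerate DNA library for 30 min at room temperature. Three washes on amylose resin followed capture of the complexes, then proteinase K release of DNA, PCR barcoding and Illumina sequencing. Binding is taken as pooled-replicate reads-per-million enrichment of pull-down relative to input.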

Sequence | binding signal
GATGATTGTTCTCCCAGCTGATGAATTTACATTCTCGAGTAAACAAATTTTCCTAATCTTTCTGTTCAAGCGCCATCTAC | 1.39 RPM ratio (pull-down/input)
GATGATTGTTCTCCCAGCTGATGAATTGTAGAATTCGAGTAAACAAATTTTCCTAATCTTTCTGTTCAAGCGCCATCTAC | 0.977 RPM ratio (pull-down/input)
GATGATTGTTCTCCCAGCTGATGAATTGTCGGTCTCGAGTAAACAAATTTTCCTAATCTTTCTGTTCAAGCGCCATCTAC | 0.852 RPM ratio (pull-down/input)
GATGATTGTTCTCCCAGCTGATGAATTTACAACGTCGAGTAAACAAATTTTCCTAATCTTTCTGTTCAAGCGCCATCTAC | 1.26 RPM ratio (pull-down/input)
GATGATTGTTCTCCCAGCTGATGAATTCGACACATCGAGTAAACAAATTTTCCTAATCTTTCTGTTCAAGCGCCATCTAC | 1.01 RPM ratio (pull-down/input)
GATGATTGTTCTCCCAGCTGATGAATTGAAGCCGTCGAGTAAACAAATTTTCCTAATCTTTCTGTTCAAGCGCCATCTAC | 0.783 RPM ratio (pull-down/input)
GATGATTGTTCTCCCAGCTGATGAATTCCTGAGATCGAGTAAACAAATTTTCCTAATCTTTCTGTTCAAGCGCCATCTAC | 0.837 RPM ratio (pull-down/input)
GATGATTGTTCTCCCAGCTGATGAATTCCACTTGTCGAGTAAACAAATTTTCCTAATCTTTCTGTTCAAGCGCCATCTAC | 0.802 RPM ratio (pull-down/input)
GATGATTGTTCTCCCAGCTGATGAATTGACTAATTCGAGTAAACAAATTTTCCTAATCTTTCTGTTCAAGCGCCATCTAC | 1.18 RPM ratio (pull-down/input)
GATGATTGTTCTCCCAGCTGATGAATTAACGTTTTCGAGTAAACAAATTTTCCTAATCTTTCTGTTCAAGCGCCATCTAC | 1.01 RPM ratio (pull-down/input)
GATGATTGTTCTCCCAGCTGATGAATTACGCCGTTCGAGTAAACAAATTTTCCTAATCTTTCTGTTCAAGCGCCATCTAC | 0.968 RPM ratio (pull-down/input)
GATGATTGTTCTCCCAGCTGATGAATTCGCAGACTCGAGTAAACAAATTTTCCTAATCTTTCTGTTCAAGCGCCATCTAC | 0.806 RPM ratio (pull-down/input)
GATGATTGTTCTCCCAGCTGATGAATTCGTATATTCGAGTAAACAAATTTTCCTAATCTTTCTGTTCAAGCGCCATCTAC | 1.05 RPM ratio (pull-down/input)
GATGATTGTTCTCCCAGCTGATGAATTATGCTTTTCGAGTAAACAAATTTTCCTAATCTTTCTGTTCAAGCGCCATCTAC | 1.39 RPM ratio (pull-down/input)
GATGATTGTTCTCCCAGCTGATGAATTGCCAGCATCGAGTAAACAAATTTTCCTAATCTTTCTGTTCAAGCGCCATCTAC | 1.07 RPM ratio (pull-down/input)
GATGATTGTTCTCCCAGCTGATGAATTTTATTTATCGAGTAAACAAATTTTCCTAATCTTTCTGTTCAAGCGCCATCTAC | 2.95 RPM ratio (pull-down/input)
GATGATTGTTCTCCCAGCTGATGAATTCGCATGCTCGAGTAAACAAATTTTCCTAATCTTTCTGTTCAAGCGCCATCTAC | 0.915 RPM ratio (pull-down/input)
GATGATTGTTCTCCCAGCTGATGAATTGCGAGATTCGAGTAAACAAATTTTCCTAATCTTTCTGTTCAAGCGCCATCTAC | 1.1 RPM ratio (pull-down/input)
GATGATTGTTCTCCCAGCTGATGAATTTGATCCCTCGAGTAAACAAATTTTCCTAATCTTTCTGTTCAAGCGCCATCTAC | 0.857 RPM ratio (pull-down/input)
GATGATTGTTCTCCCAGCTGATGAATTCTGTGCCTCGAGTAAACAAATTTTCCTAATCTTTCTGTTCAAGCGCCATCTAC | 0.923 RPM ratio (pull-down/input)
GATGATTGTTCTCCCAGCTGATGAATTTGCAATCTCGAGTAAACAAATTTTCCTAATCTTTCTGTTCAAGCGCCATCTAC | 1.07 RPM ratio (pull-down/input)

Sequence | binding signal
GATGATTGTTCTCCCAGCTGATGAATTGGCGTACTCGAGTAAACAAATTTTCCTAATCTTTCTGTTCAAGCGCCATCTAC | 0.914 RPM ratio (pull-down/input)
GATGATTGTTCTCCCAGCTGATGAATTCTAAGCTTCGAGTAAACAAATTTTCCTAATCTTTCTGTTCAAGCGCCATCTAC | 0.832 RPM ratio (pull-down/input)
GATGATTGTTCTCCCAGCTGATGAATTTACCAGATCGAGTAAACAAATTTTCCTAATCTTTCTGTTCAAGCGCCATCTAC | 1.18 RPM ratio (pull-down/input)
GATGATTGTTCTCCCAGCTGATGAATTGGGCTGATCGAGTAAACAAATTTTCCTAATCTTTCTGTTCAAGCGCCATCTAC | 0.881 RPM ratio (pull-down/input)
GATGATTGTTCTCCCAGCTGATGAATTTCGTTTATCGAGTAAACAAATTTTCCTAATCTTTCTGTTCAAGCGCCATCTAC | 1.41 RPM ratio (pull-down/input)
GATGATTGTTCTCCCAGCTGATGAATTGCGACCGTCGAGTAAACAAATTTTCCTAATCTTTCTGTTCAAGCGCCATCTAC | 1.02 RPM ratio (pull-down/input)
GATGATTGTTCTCCCAGCTGATGAATTCACCAGGTCGAGTAAACAAATTTTCCTAATCTTTCTGTTCAAGCGCCATCTAC | 0.823 RPM ratio (pull-down/input)
GATGATTGTTCTCCCAGCTGATGAATTTCTGCAATCGAGTAAACAAATTTTCCTAATCTTTCTGTTCAAGCGCCATCTAC | 1.1 RPM ratio (pull-down/input)
GATGATTGTTCTCCCAGCTGATGAATTCGCGAGGTCGAGTAAACAAATTTTCCTAATCTTTCTGTTCAAGCGCCATCTAC | 0.764 RPM ratio (pull-down/input)
GATGATTGTTCTCCCAGCTGATGAATTTCCCTGCTCGAGTAAACAAATTTTCCTAATCTTTCTGTTCAAGCGCCATCTAC | 0.78 RPM ratio (pull-down/input)
GATGATTGTTCTCCCAGCTGATGAATTCTGTGTATCGAGTAAACAAATTTTCCTAATCTTTCTGTTCAAGCGCCATCTAC | 1.79 RPM ratio (pull-down/input)
GATGATTGTTCTCCCAGCTGATGAATTACGTCCGTCGAGTAAACAAATTTTCCTAATCTTTCTGTTCAAGCGCCATCTAC | 0.998 RPM ratio (pull-down/input)
GATGATTGTTCTCCCAGCTGATGAATTTAAAGACTCGAGTAAACAAATTTTCCTAATCTTTCTGTTCAAGCGCCATCTAC | 0.803 RPM ratio (pull-down/input)
GATGATTGTTCTCCCAGCTGATGAATTGCAATCATCGAGTAAACAAATTTTCCTAATCTTTCTGTTCAAGCGCCATCTAC | 1.48 RPM ratio (pull-down/input)
GATGATTGTTCTCCCAGCTGATGAATTCTTGTGCTCGAGTAAACAAATTTTCCTAATCTTTCTGTTCAAGCGCCATCTAC | 0.933 RPM ratio (pull-down/input)
GATGATTGTTCTCCCAGCTGATGAATTGCCTCGCTCGAGTAAACAAATTTTCCTAATCTTTCTGTTCAAGCGCCATCTAC | 0.905 RPM ratio (pull-down/input)
GATGATTGTTCTCCCAGCTGATGAATTCACTGTATCGAGTAAACAAATTTTCCTAATCTTTCTGTTCAAGCGCCATCTAC | 1.09 RPM ratio (pull-down/input)
GATGATTGTTCTCCCAGCTGATGAATTGCTCGCGTCGAGTAAACAAATTTTCCTAATCTTTCTGTTCAAGCGCCATCTAC | 1.03 RPM ratio (pull-down/input)
GATGATTGTTCTCCCAGCTGATGAATTGGCCGAATCGAGTAAACAAATTTTCCTAATCTTTCTGTTCAAGCGCCATCTAC | 0.859 RPM ratio (pull-down/input)
GATGATTGTTCTCCCAGCTGATGAATTGGTCCGTTCGAGTAAACAAATTTTCCTAATCTTTCTGTTCAAGCGCCATCTAC | 0.877 RPM ratio (pull-down/input)
GATGATTGTTCTCCCAGCTGATGAATTCTATTCATCGAGTAAACAAATTTTCCTAATCTTTCTGTTCAAGCGCCATCTAC | 0.915 RPM ratio (pull-down/input)

Sequence | binding signal
GATGATTGTTCTCCCAGCTGATGAATTGCGTCAATCGAGTAAACAAATTTTCCTAATCTTTCTGTTCAAGCGCCATCTAC | 1.25 RPM ratio (pull-down/input)
GATGATTGTTCTCCCAGCTGATGAATTCTCTCGCTCGAGTAAACAAATTTTCCTAATCTTTCTGTTCAAGCGCCATCTAC | 0.825 RPM ratio (pull-down/input)
GATGATTGTTCTCCCAGCTGATGAATTCCGGCAGTCGAGTAAACAAATTTTCCTAATCTTTCTGTTCAAGCGCCATCTAC | 0.802 RPM ratio (pull-down/input)
GATGATTGTTCTCCCAGCTGATGAATTCGAACTTTCGAGTAAACAAATTTTCCTAATCTTTCTGTTCAAGCGCCATCTAC | 0.83 RPM ratio (pull-down/input)
GATGATTGTTCTCCCAGCTGATGAATTTTGCGAATCGAGTAAACAAATTTTCCTAATCTTTCTGTTCAAGCGCCATCTAC | 0.989 RPM ratio (pull-down/input)
GATGATTGTTCTCCCAGCTGATGAATTATACTTGTCGAGTAAACAAATTTTCCTAATCTTTCTGTTCAAGCGCCATCTAC | 1.05 RPM ratio (pull-down/input)
GATGATTGTTCTCCCAGCTGATGAATTTTGCCAGTCGAGTAAACAAATTTTCCTAATCTTTCTGTTCAAGCGCCATCTAC | 0.866 RPM ratio (pull-down/input)
GATGATTGTTCTCCCAGCTGATGAATTAACTAGGTCGAGTAAACAAATTTTCCTAATCTTTCTGTTCAAGCGCCATCTAC | 0.8 RPM ratio (pull-down/input)
GATGATTGTTCTCCCAGCTGATGAATTACCAGTGTCGAGTAAACAAATTTTCCTAATCTTTCTGTTCAAGCGCCATCTAC | 0.952 RPM ratio (pull-down/input)
GATGATTGTTCTCCCAGCTGATGAATTATGGATCTCGAGTAAACAAATTTTCCTAATCTTTCTGTTCAAGCGCCATCTAC | 0.856 RPM ratio (pull-down/input)
GATGATTGTTCTCCCAGCTGATGAATTCTGAGTATCGAGTAAACAAATTTTCCTAATCTTTCTGTTCAAGCGCCATCTAC | 0.9 RPM ratio (pull-down/input)
GATGATTGTTCTCCCAGCTGATGAATTTGAGGGGTCGAGTAAACAAATTTTCCTAATCTTTCTGTTCAAGCGCCATCTAC | 0.748 RPM ratio (pull-down/input)
GATGATTGTTCTCCCAGCTGATGAATTTGAAGATTCGAGTAAACAAATTTTCCTAATCTTTCTGTTCAAGCGCCATCTAC | 0.925 RPM ratio (pull-down/input)
GATGATTGTTCTCCCAGCTGATGAATTGTCGTAATCGAGTAAACAAATTTTCCTAATCTTTCTGTTCAAGCGCCATCTAC | 1.58 RPM ratio (pull-down/input)
GATGATTGTTCTCCCAGCTGATGAATTGAAACGATCGAGTAAACAAATTTTCCTAATCTTTCTGTTCAAGCGCCATCTAC | 0.87 RPM ratio (pull-down/input)
GATGATTGTTCTCCCAGCTGATGAATTATTATAATCGAGTAAACAAATTTTCCTAATCTTTCTGTTCAAGCGCCATCTAC | 1.5 RPM ratio (pull-down/input)
GATGATTGTTCTCCCAGCTGATGAATTCCTGGAGTCGAGTAAACAAATTTTCCTAATCTTTCTGTTCAAGCGCCATCTAC | 0.712 RPM ratio (pull-down/input)
GATGATTGTTCTCCCAGCTGATGAATTATTCCTCTCGAGTAAACAAATTTTCCTAATCTTTCTGTTCAAGCGCCATCTAC | 1 RPM ratio (pull-down/input)
GATGATTGTTCTCCCAGCTGATGAATTACAACTTTCGAGTAAACAAATTTTCCTAATCTTTCTGTTCAAGCGCCATCTAC | 1.33 RPM ratio (pull-down/input)
GATGATTGTTCTCCCAGCTGATGAATTAGTTCATTCGAGTAAACAAATTTTCCTAATCTTTCTGTTCAAGCGCCATCTAC | 0.908 RPM ratio (pull-down/input)
GATGATTGTTCTCCCAGCTGATGAATTCCCCTTGTCGAGTAAACAAATTTTCCTAATCTTTCTGTTCAAGCGCCATCTAC | 0.813 RPM ratio (pull-down/input)
